Some of the results follow.
Legend:
Assay in all cases: glycan array binding signal (z-score within array); higher = stronger binding
Conditions in all cases: glycan notation: IUPAC condensed, linker removed; mutation: N288D, K313I
[1] = molecular target: Neu5Ac(a2-6)Gal(b1-4)GlcNAc(b1-3)Gal(b1-4)GlcNAc(b1-3)Gal(b1-4)GlcNAc(b1-2)Man(a1-3)[Neu5Ac(a2-6)Gal(b1-4)GlcNAc(b1-3)Gal(b1-4)GlcNAc(b1-3)Gal(b1-4)GlcNAc(b1-2)Man(a1-6)]GalNAc
Method in brief: (§1)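 The binding signal is a Z-score computed within each array. Data were drawn from 3228 arrays in the Consortium for Functional Glycomics database, restricted to those with a known protein sequence. Scores were averaged over arrays of the same protein sequence at different concentrations or buffers, and over linkers, and negative values can be taken as non-binding.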

[2] = molecular target: Neu5Ac(a2-6)Gal(b1-4)GlcNAc(b1-3)Gal(b1-4)GlcNAc(b1-3)GalNAc
Method in brief: as §1

[3] = molecular target: Neu5Ac(a2-6)Gal(b1-4)GlcNAc(b1-3)Gal(b1-4)GlcNAc(b1-3)[Neu5Ac(a2-6)Gal(b1-4)GlcNAc(b1-3)Gal(b1-4)GlcNAc(b1-6)]GalNAc
Method in brief: as §1

[4] = molecular target: Neu5Ac(a2-6)Gal(b1-4)GlcNAc(b1-3)Gal(b1-4)GlcNAc(b1-6)[Gal(b1-3)]GalNAc
Method in brief: as §1

[5] = molecular target: Neu5Ac(a2-6)Gal(b1-4)GlcNAc(b1-3)Gal(b1-4)[Fuc(a1-3)]GlcNAc(b1-3)Gal(b1-4)[Fuc(a1-3)]GlcNAc
Method in brief: as §1

[6] = molecular target: Neu5Ac(a2-6)Gal(b1-4)GlcNAc(b1-3)GalNAc
Method in brief: as §1

[7] = molecular target: Neu5Ac(a2-6)Gal(b1-4)GlcNAc(b1-3)[Neu5Ac(a2-6)Gal(b1-4)GlcNAc(b1-6)]GalNAc
Method in brief: as §1

[8] = molecular target: Neu5Ac(a2-6)Gal(b1-4)GlcNAc(b1-6)GalNAc
Method in brief: as §1

[9] = molecular target: Neu5Ac(a2-6)Gal(b1-4)GlcNAc(b1-6)[Gal(b1-3)GlcNAc(b1-3)]Gal(b1-4)Glc
Method in brief: as §1

[10] = molecular target: Neu5Ac(a2-6)Gal(b1-4)GlcNAc(b1-6)[Gal(b1-3)]GalNAc
Method in brief: as §1

[11] = molecular target: Neu5Ac(a2-6)Gal(b1-4)GlcNAc6S
Method in brief: as §1

Neu5Ac(a2-6)GalNAc = molecular target: Neu5Ac(a2-6)GalNAc
Method in brief: as §1

[12] = molecular target: Neu5Ac(a2-6)GalNAc(b1-4)GlcNAc
Method in brief: as §1

[13] = molecular target: Neu5Ac(a2-6)GalNAc(b1-4)GlcNAc6S
Method in brief: as §1

[14] = molecular target: Neu5Ac(a2-6)GlcNAc(b1-4)GlcNAc
Method in brief: as §1

[15] = molecular target: Neu5Ac(a2-6)GlcNAc(b1-4)GlcNAc(b1-4)GlcNAc
Method in brief: as §1

Neu5Ac(a2-8)Neu5Ac = molecular target: Neu5Ac(a2-8)Neu5Ac
Method in brief: as §1

[16] = molecular target: Neu5Ac(a2-8)Neu5Ac(a2-3)Gal(b1-3)GalNAc(b1-4)[Neu5Ac(a2-3)]Gal(b1-4)Glc
Method in brief: as §1

[17] = molecular target: Neu5Ac(a2-8)Neu5Ac(a2-3)Gal(b1-3)GalNAc(b1-4)[Neu5Ac(a2-8)Neu5Ac(a2-3)]Gal(b1-4)Glc
Method in brief: as §1

[18] = molecular target: Neu5Ac(a2-8)Neu5Ac(a2-3)Gal(b1-4)Glc
Method in brief: as §1

[19] = molecular target: Neu5Ac(a2-8)Neu5Ac(a2-3)Gal(b1-4)GlcNAc
Method in brief: as §1

[20] = molecular target: Neu5Ac(a2-8)Neu5Ac(a2-3)[Gal(b1-3)GalNAc(b1-4)]Gal(b1-4)Glc
Method in brief: as §1

[21] = molecular target: Neu5Ac(a2-8)Neu5Ac(a2-3)[GalNAc(b1-4)]Gal(b1-4)Glc
Method in brief: as §1

[22] = molecular target: Neu5Ac(a2-8)Neu5Ac(a2-8)Neu5Ac
Method in brief: as §1

[23] = molecular target: Neu5Ac(a2-8)Neu5Ac(a2-8)Neu5Ac(a2-3)Gal(b1-4)Glc
Method in brief: as §1

[24] = molecular target: Neu5Ac(a2-8)Neu5Ac(a2-8)Neu5Ac(a2-3)[Gal(b1-3)GalNAc(b1-4)]Gal(b1-4)Glc
Method in brief: as §1

[25] = molecular target: Neu5Ac(a2-8)Neu5Ac(a2-8)Neu5Ac(a2-3)[GalNAc(b1-4)]Gal(b1-4)Glc
Method in brief: as §1

[26] = molecular target: Neu5Ac(a2-8)Neu5Ac(a2-8)Neu5Ac(a2-8)Neu5Ac(a2-3)[GalNAc(b1-4)]Gal(b1-4)Glc
Method in brief: as §1

[27] = molecular target: Neu5Ac(a2-8)Neu5Gc(a2-3)Gal(b1-4)GlcNAc
Method in brief: as §1

[28] = molecular target: Neu5Ac(b2-6)Gal(b1-4)GlcNAc
Method in brief: as §1

Neu5Ac(b2-6)GalNAc = molecular target: Neu5Ac(b2-6)GalNAc
Method in brief: as §1

[29] = molecular target: Neu5Ac9Ac(a2-3)Gal(b1-3)GlcNAc
Method in brief: as §1

[30] = molecular target: Neu5Ac9Ac(a2-3)Gal(b1-4)GlcNAc
Method in brief: as §1

[31] = molecular target: Neu5Ac9Ac(a2-6)Gal(b1-4)GlcNAc
Method in brief: as §1

[32] = molecular target: Neu5Gc(a2-3)Gal(b1-3)GlcNAc
Method in brief: as §1

[33] = molecular target: Neu5Gc(a2-3)Gal(b1-3)[Fuc(a1-4)]GlcNAc
Method in brief: as §1

Neu5Gc(a2-3)Gal(b1-4)Glc = molecular target: Neu5Gc(a2-3)Gal(b1-4)Glc
Method in brief: as §1

[34] = molecular target: Neu5Gc(a2-3)Gal(b1-4)GlcNAc
Method in brief: as §1

[35] = molecular target: Neu5Gc(a2-3)Gal(b1-4)GlcNAc(b1-3)Gal(b1-4)GlcNAc(b1-2)Man(a1-3)[Neu5Gc(a2-3)Gal(b1-4)GlcNAc(b1-3)Gal(b1-4)GlcNAc(b1-2)Man(a1-6)]Man(b1-4)GlcNAc(b1-4)GlcNAc
Method in brief: as §1

[36] = molecular target: Neu5Gc(a2-3)Gal(b1-4)[Fuc(a1-3)]GlcNAc
Method in brief: as §1

[37] = molecular target: Neu5Gc(a2-6)Gal(b1-4)GlcNAc
Method in brief: as §1

Neu5Gc(a2-6)GalNAc = molecular target: Neu5Gc(a2-6)GalNAc
Method in brief: as §1

[38] = molecular target: Neu5Gc(a2-8)Neu5Ac(a2-3)Gal(b1-4)GlcNAc
Method in brief: as §1

[39] = molecular target: Neu5Gc(a2-8)Neu5Gc(a2-3)Gal(b1-4)GlcNAc
Method in brief: as §1

[40] = molecular target: Neu5Gc(a2-8)Neu5Gc(a2-3)Gal(b1-4)GlcNAc(b1-3)Gal(b1-4)GlcNAc
Method in brief: as §1

[41] = molecular target: Neu5Gc(a2-8)Neu5Gc(a2-6)Gal(b1-4)GlcNAc
Method in brief: as §1

[42] = molecular target: Neu5Gc(b2-6)Gal(b1-4)GlcNAc
Method in brief: as §1

B1: Langerin (Homo sapiens), Q9UJ71 (protein)
chain: STLNAQIPELKSDLEKASALNTKIRALQGSLENMSKLLKRQNDILQVVSQGWKYFKGNFYYFSLIPKTWYSAEQFCVSRNSHLTSVTSESEQEFLYKTAGGLIYWIGLTKAGMEGDWSWVDDTPFNKVQSARFWIPGEPNDAGNNEHCGNIKAPSLQAWNDAPCDITFLFICKRPYVPSEP
[1]
  glycan array binding signal (z-score): 0.27
[2]
  glycan array binding signal (z-score): -0.24
[3]
  glycan array binding signal (z-score): -0.171
[4]
  glycan array binding signal (z-score): -0.179
[5]
  glycan array binding signal (z-score): 0.087
[6]
  glycan array binding signal (z-score): -0.102
[7]
  glycan array binding signal (z-score): 0.056
[8]
  glycan array binding signal (z-score): 0.078
[9]
  glycan array binding signal (z-score): -0.258
[10]
  glycan array binding signal (z-score): 0.089
[11]
  glycan array binding signal (z-score): -0.317
Neu5Ac(a2-6)GalNAc
  glycan array binding signal (z-score): -0.279
[12]
  glycan array binding signal (z-score): -0.179
[13]
  glycan array binding signal (z-score): -0.171
[14]
  glycan array binding signal (z-score): -0.161
[15]
  glycan array binding signal (z-score): -0.342
Neu5Ac(a2-8)Neu5Ac
  glycan array binding signal (z-score): -0.262
[16]
  glycan array binding signal (z-score): -0.283
[17]
  glycan array binding signal (z-score): -0.248
[18]
  glycan array binding signal (z-score): -0.237
[19]
  glycan array binding signal (z-score): -0.24
[20]
  glycan array binding signal (z-score): -0.08
[21]
  glycan array binding signal (z-score): -0.041
[22]
  glycan array binding signal (z-score): -0.207
[23]
  glycan array binding signal (z-score): -0.151
[24]
  glycan array binding signal (z-score): -0.318
[25]
  glycan array binding signal (z-score): -0.152
[26]
  glycan array binding signal (z-score): -0.254
[27]
  glycan array binding signal (z-score): -0.209
[28]
  glycan array binding signal (z-score): -0.282
Neu5Ac(b2-6)GalNAc
  glycan array binding signal (z-score): -0.196
[29]
  glycan array binding signal (z-score): -0.16
[30]
  glycan array binding signal (z-score): -0.434
[31]
  glycan array binding signal (z-score): -0.229
[32]
  glycan array binding signal (z-score): -0.268
[33]
  glycan array binding signal (z-score): -0.213
Neu5Gc(a2-3)Gal(b1-4)Glc
  glycan array binding signal (z-score): -0.045
[34]
  glycan array binding signal (z-score): -0.287
[35]
  glycan array binding signal (z-score): -0.167
[36]
  glycan array binding signal (z-score): -0.191
[37]
  glycan array binding signal (z-score): -0.375
Neu5Gc(a2-6)GalNAc
  glycan array binding signal (z-score): -0.265
[38]
  glycan array binding signal (z-score): -0.268
[39]
  glycan array binding signal (z-score): -0.307
[40]
  glycan array binding signal (z-score): -0.261
[41]
  glycan array binding signal (z-score): -0.178
[42]
  glycan array binding signal (z-score): -0.231

Source: the supplement of paper PMC8728848
